This is one part of the list. Cut-off read from the data, not from the text of the source: active = 3.2 or more and inactive = the rest. The signal is at background level for most entries.
Legend:
Assay in all cases: enrichment score (SH2-bound / input frequency) (ratio); bacterial display of known human phosphotyrosine sites (pTyr-Var adds point mutants) read by sequencing; higher = stronger binding; tyrosines were phosphorylated by kinases first
Settings in all cases: peptide library: pTyr-Var
[1] = molecular target: SHP2 C-SH2 domain E139D
[2] = molecular target: SHP2 C-SH2 domain wild-type
[3] = molecular target: SHP2 N-SH2 domain L43F
[4] = molecular target: SHP2 N-SH2 domain T42A
[5] = molecular target: SHP2 N-SH2 domain T52S
[6] = molecular target: SHP2 N-SH2 domain wild-type

Measured: enrichment score
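Note: displayed peptides selected on beads carrying the immobilized SH2 domain, with library peptides lacking any tyrosine serving as negative controls.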

RSRSSYTHSLN [MYCT1_Y116_G119S]
inactive: [1] 0.306 | [2] 0.355 | [3] 0.343 | [4] 0.289 | [5] 0.465 | [6] 0.363

LIPIKYKAMKK [MYD88_Y257]
inactive: [1] 0.863 | [2] 0.6 | [3] 0.461 | [4] 0.622 | [5] 0.565 | [6] 0.915

ETMNKYDLSGR [MYEF2_Y164]
inactive: [1] 0.715 | [2] 0.689 | [3] 0.545 | [4] 0.549 | [5] 0.733 | [6] 0.82

ADRAAYLQNLN [MYH1_Y389_K386R]
inactive: [1] 0.679 | [2] 0.574 | [3] 0.652 | [4] 0.693 | [5] 0.622 | [6] 0.827

ADKAAYLQSLN [MYH2_Y389]
inactive: [1] 0.79 | [2] 0.739 | [3] 0.609 | [4] 0.573 | [5] 0.716 | [6] 0.646

KQRSDYARELE [MYH3_Y1140]
inactive: [1] 0.577 | [2] 0.615 | [3] 0.56 | [4] 0.61 | [5] 0.541 | [6] 0.73

KQCSDYARELE [MYH3_Y1140_R1137C]
inactive: [1] 0.733 | [2] 0.594 | [3] 0.511 | [4] 0.515 | [5] 0.585 | [6] 0.678

PNRILYGDFWQ [MYH6_Y717_R721W]
inactive: [1] 1.05 | [2] 1 | [3] 0.904 | [4] 1.32 | [5] 0.934 | [6] 1.13

QWRTKYETDAI [MYH7_Y1375]
inactive: [1] 1.14 | [2] 0.991 | [3] 0.99 | [4] 0.864 | [5] 0.799 | [6] 1.43

QWRTKYETDTI [MYH7_Y1375_A1379T]
inactive: [1] 0.644 | [2] 0.884 | [3] 0.859 | [4] 0.803 | [5] 0.627 | [6] 0.597

EWKQNYEESQS [MYH7_Y1460_K1459N]
inactive: [1] 0.562 | [2] 0.59 | [3] 0.626 | [4] 0.656 | [5] 0.587 | [6] 0.594

KLKNAYEESLE [MYH7_Y1488]
inactive: [1] 0.802 | [2] 0.824 | [3] 0.792 | [4] 0.834 | [5] 0.665 | [6] 0.961

ISDNACQYMLT [MYH7_Y162_Y162C]
inactive: [1] 0.766 | [2] 0.944 | [3] 0.871 | [4] 0.903 | [5] 0.733 | [6] 0.908

ISDNACQFMLT [MYH7_Y162_Y162C_YF]
inactive: [1] 0.694 | [2] 0.69 | [3] 0.649 | [4] 0.422 | [5] 0.51 | [6] 0.765

ISDNAYQFMLT [MYH7_Y162_YF]
inactive: [1] 0.925 | [2] 0.802 | [3] 0.956 | [4] 0.921 | [5] 0.953 | [6] 0.824

DNACQYMLTDR [MYH7_Y164_Y162C]
inactive: [1] 0.791 | [2] 1.1 | [3] 0.668 | [4] 0.657 | [5] 0.627 | [6] 0.764

DNAFQYMLTDR [MYH7_Y164_YF]
inactive: [1] 0.841 | [2] 0.662 | [3] 0.817 | [4] 0.666 | [5] 0.774 | [6] 0.831

IKELTYQTEED [MYH7_Y1852]
inactive: [1] 0.69 | [2] 0.656 | [3] 0.543 | [4] 0.56 | [5] 0.606 | [6] 0.617

ADIETYLLEKS [MYH7_Y266]
inactive: [1] 0.731 | [2] 0.59 | [3] 0.647 | [4] 0.522 | [5] 0.647 | [6] 0.683

ADKSAYLMGLN [MYH7_Y386]
inactive: [1] 0.712 | [2] 0.8 | [3] 0.502 | [4] 0.643 | [5] 0.634 | [6] 0.719

ADKSVYLMGLN [MYH7_Y386_A385V]
inactive: [1] 0.853 | [2] 1.31 | [3] 0.79 | [4] 0.972 | [5] 0.718 | [6] 0.833

ADNSAYLMGLN [MYH7_Y386_K383N]
inactive: [1] 0.652 | [2] 0.729 | [3] 0.728 | [4] 0.653 | [5] 0.644 | [6] 0.846

ADKSAYLMGVN [MYH7_Y386_L390V]
inactive: [1] 0.543 | [2] 0.585 | [3] 0.512 | [4] 0.7 | [5] 0.67 | [6] 0.808

KVGNEYVNKGQ [MYH7_Y410_T412N]
inactive: [1] 0.619 | [2] 0.612 | [3] 0.506 | [4] 0.549 | [5] 0.68 | [6] 0.629

KMGNEYVTKGQ [MYH7_Y410_V406M]
inactive: [1] 0.511 | [2] 0.635 | [3] 0.543 | [4] 0.462 | [5] 0.494 | [6] 0.509

FSLIHYAGIVD [MYH7_Y582]
inactive: [3] 3.13 | [5] 2.52 | [6] 1.97
active: [1] 4.25 | [2] 7.18 | [4] 6.26

FSLIHYAGIVV [MYH7_Y582_D587V]
active: [2] 4 | [4] 5.27 | [5] 3.75
inactive: [1] 2.47 | [3] 2.84 | [6] 2.52

FSLIHYARIVD [MYH7_Y582_G584R]
active: [1] 5.47 | [2] 5.8 | [4] 4.58
inactive: [3] 2.49 | [5] 2.75 | [6] 2.62

AGIVDYNIIGW [MYH7_Y588]
inactive: [1] 0.661 | [2] 0.737 | [3] 0.695 | [4] 0.66 | [5] 0.626 | [6] 0.831

TVVGLYQKSSL [MYH7_Y609]
inactive: [1] 1.05 | [2] 1.06 | [3] 0.738 | [4] 0.939 | [5] 0.916 | [6] 0.99

PNRILYGDFQQ [MYH7_Y715_R719Q]
inactive: [1] 0.761 | [2] 0.868 | [3] 0.879 | [4] 0.883 | [5] 0.92 | [6] 1.27

EVDELYREAPI [MYL12B_Y143]
inactive: [1] 0.636 | [2] 0.715 | [3] 0.67 | [4] 0.607 | [5] 0.73 | [6] 0.773

KDQGTYEDFVE [MYL6_Y86_YF]
inactive: [1] 0.802 | [2] 0.126 | [3] 0.98 | [4] 0.382 | [5] 0.274 | [6] 0.463

GIYEDYVEGLR [MYL6_Y89_T85I]
inactive: [1] 0.675 | [2] 0.839 | [3] 0.772 | [4] 0.728 | [5] 0.852 | [6] 0.673

GTFEDYVEGLR [MYL6_Y89_YF]
inactive: [1] 0.894 | [2] 0.918 | [3] 0.869 | [4] 0.611 | [5] 0.889 | [6] 0.85

GGSDRYGSLRP [MYLK_Y846]
inactive: [1] 0.621 | [2] 0.657 | [3] 0.569 | [4] 0.677 | [5] 0.564 | [6] 0.824

GGSDCYGSLRP [MYLK_Y846_R845C]
inactive: [1] 0.718 | [2] 0.645 | [3] 0.752 | [4] 0.487 | [5] 0.551 | [6] 0.88

Reference: the supplement of paper PMC10369915
